According to PubChem BioAssay AID1460 (National Center for Advancing Translational Sciences (NCATS), 2008):
Where “and” joins values, the source holds several entries; their conditions need not be identical. Equal values may be shown once. The campaign covered roughly 270,000 compounds. About 5,800 (2.1%) were called active. The shares of active, inactive and inconclusive entries below differ from those in the screen. Calls come from the whole dose curve; as a rule, active = well fitted inhibition curve with a large enough effect; inconclusive = small, poorly fitted or top-dose-only effect; inactive = flat fitted curve, though single readings scatter. A potency beside an inconclusive call is a rough fit, not a confirmed value.

These molecules were tested against Microtubule-associated protein tau (Homo sapiens) (UniProt P10636) (assay: qHTS for Inhibitors of Tau Fibril Formation, Thioflavin T Binding). Conditions: recombinant tau K18 P301L (four-repeat tau fragment), heparin-induced fibrillization, ThT fluorescence; series mostly up to 57.4 µM.
Procedure, shortened: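 Aggregation was driven by heparin (20 uM final) acting on recombinant tau […] bearing P301L in 100 mM sodium acetate pH 7; fibrils were detected with Thioflavin T.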
% is set by controls: 0 for no effect and ±100 for the full control effect; potency is the fitted concentration of half-maximal effect; tags give direction and shape of the fitted curve.
Note: nearly all actives have a fitted effect of over 55% in size.

UniProt P10636, sequence (P10636 whole entry, looked up, the tested form may be a part): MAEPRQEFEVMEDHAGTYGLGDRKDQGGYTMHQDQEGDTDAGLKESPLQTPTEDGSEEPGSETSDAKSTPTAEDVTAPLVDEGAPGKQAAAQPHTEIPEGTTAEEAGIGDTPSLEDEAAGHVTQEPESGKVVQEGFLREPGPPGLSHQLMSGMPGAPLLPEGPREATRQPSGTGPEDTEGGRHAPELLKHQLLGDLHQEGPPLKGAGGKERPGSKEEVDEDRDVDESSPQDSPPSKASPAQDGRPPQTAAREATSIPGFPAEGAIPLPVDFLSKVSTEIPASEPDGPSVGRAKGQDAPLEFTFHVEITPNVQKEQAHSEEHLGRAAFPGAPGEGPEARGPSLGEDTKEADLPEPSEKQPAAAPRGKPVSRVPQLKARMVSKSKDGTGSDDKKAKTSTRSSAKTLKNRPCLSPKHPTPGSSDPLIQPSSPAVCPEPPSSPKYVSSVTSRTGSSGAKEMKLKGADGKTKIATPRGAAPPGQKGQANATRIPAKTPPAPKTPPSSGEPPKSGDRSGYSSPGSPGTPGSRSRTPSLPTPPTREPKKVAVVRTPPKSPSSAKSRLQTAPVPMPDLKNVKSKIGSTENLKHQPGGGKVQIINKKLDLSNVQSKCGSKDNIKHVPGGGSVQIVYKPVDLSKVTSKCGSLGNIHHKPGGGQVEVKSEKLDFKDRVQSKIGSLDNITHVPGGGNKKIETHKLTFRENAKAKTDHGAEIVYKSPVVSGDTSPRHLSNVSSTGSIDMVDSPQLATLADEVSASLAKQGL

Row | Structure (SMILES) | Potency | activity, negative = inhibition
1 | C=CCc1cccc2cc(C(=O)Nc3ccc(NC(C)=O)cc3)c(=O)oc12 | inconclusive: 3.16 µM [inhibitor, full curve] | 
2 | CCOc1ccc(NC(=O)NCC2CCN(c3ccc(OC)cc3)C2)cc1 (stereo unspecified) | inconclusive: 2.51 µM [inhibitor, full curve] | 
3 | COCC(=O)NNS(=O)(=O)c1ccccc1[N+](=O)[O-] | inactive | 
4 | CCN1CCc2c(sc(-n3cccc3)c2C(C)NC(=O)Nc2ccccc2C)C1 (stereo unspecified) | inactive | 
5 | C=CCN1c2ccccc2[C@]23C[C@@H](C(=O)OC)N(S(=O)(=O)c4ccc(C)cc4)C2=NC(C(=O)OC)=C(C(=O)OC)[C@H]13 |  | inactive: 4.53% [at 11.5 µM]
6 | CC(C)c1ccc(/C=C2\CC/C(=C\C=N\N(C)C)C2=O)cc1 | active: 3.16 µM | 
7 | CCC1CCCCN1c1nc(-c2ccncc2)nc2ccccc12 (stereo unspecified) | inconclusive: 35.5 µM [inhibitor, partial curve] | 
8 | Cc1ccc(C(=O)CSc2nnc3c4ccccc4nc(Cc4ccccc4)n23)cc1 | inactive | 
9 | COc1ccccc1CNC(=O)c1cc2ccc3ccc(C)[nH]c3c2n1 | inactive | 
10 | O=[N+]([O-])c1ccc(/C=N/NC(=S)Nc2ccccc2)o1 | inactive | 
11 | Cc1ccccc1CSCCNC(=O)CN(c1ccccc1)S(=O)(=O)N(C)C | inconclusive: 39.8 µM [inhibitor, single point] | 
12 | Cc1ccc(/C=C/C(=O)c2ccccc2)cc1 | inconclusive: 15.8 µM [inhibitor, partial curve] | 
13 | CCOC(=O)[C@@]12C[C@@H]1/C(=N/O)c1ccccc1O2 | inactive | 
14 | Cc1cccc(N2CCN(CC(O)COc3ccccc3Cl)CC2)c1 (stereo unspecified) | inconclusive: 14.1 µM [inhibitor, partial curve] | 
15 | COc1ccc(C=NCCCN2CCOCC2)cc1 | inactive | 
16 | Cc1ccc(OCCC(=O)N2CCN(c3ccc(O)cc3)CC2)cc1 | inconclusive: 14.1 µM [inhibitor, partial curve] | 
17 | Cc1[nH]n2c(=O)c3c(nc2c1-c1cccc2ccccc12)CCC3 | inactive | 
18 | C(=N\Nc1ccccn1)/c1ccc(N2CCOCC2)cc1 | inconclusive: 3.55 µM [inhibitor, single point] | 
19 | COc1ccc(NC(=O)C2CCC(CNS(=O)(=O)c3cccs3)CC2)cc1OC (stereo unspecified) | inconclusive: 31.6 µM [inhibitor, partial curve, poor fit] and inconclusive: 22.4 µM [inhibitor, partial curve] | 
20 | NC(Cc1cc(I)c(Oc2cc(I)c(O)c(I)c2)c(I)c1)C(=O)O (stereo unspecified) | inconclusive: 22.4 µM [inhibitor, partial curve] | 
21 | COc1ccc(C(=O)N=c2sc3ccccc3n2C)cc1OC | inconclusive: 39.8 µM [activator, single point] | 
22 | Cc1cccc(OCCSc2nnc(-c3ccoc3C)n2C)c1 | inconclusive: 22.4 µM [inhibitor, single point] | 
23 | Cc1nnc(C)c2c(C)n(-c3cccc4cccnc34)c(C)c12 | inconclusive: 6.31 µM [inhibitor, single point] | 
24 | O=C(/C=C/c1ccco1)Nc1cccnc1 | inactive | 

Row | Structure (SMILES) | Potency | activity, negative = inhibition
25 | COc1ccc(/C=C2\C(=O)N(c3c(Cl)cc(Cl)cc3Cl)N=C2NC(=O)c2cccc([N+](=O)[O-])c2)cc1 | inconclusive: 2.51 µM [inhibitor, full curve] | 
26 | Cc1ccc(C)c(CSc2cn(CCNC(=O)c3ccccc3F)c3ccccc23)c1 | inconclusive: 14.1 µM [inhibitor, partial curve, poor fit] | 
27 | Cc1cccc(NC(=S)NNC(=O)c2ccccc2OC(F)F)c1 | inconclusive: 39.8 µM [inhibitor, partial curve] | 
28 | COC(=O)C1=C(C(=O)OC)[C@@H]2N(C)c3ccccc3[C@@]23C[C@@H](C(=O)OC)N(C(=O)CC(C)C)C3=N1 | inactive | 
29 | c1ccc(-c2noc(-c3ccc4ccccc4c3)n2)nc1 | inconclusive: 1.41 µM [inhibitor, full curve, poor fit] | 
30 | O=C(O)CSc1cccc2cccnc12 | inactive | 
31 | COc1ccc(Cn2c3nc4ccccc4nc3c3c(=O)n(Cc4ccco4)c(C)nc32)cc1 | inconclusive: 39.8 µM [inhibitor, single point] | 
32 | CCOc1ccc(N2C(=O)CC(N(O)c3ccccc3)C2=O)cc1 (stereo unspecified) | inconclusive: 15.8 µM [inhibitor, partial curve] | 
33 | CN=C1S/C(=C\c2ccc(N3CCOCC3)c(F)c2)C(=O)N1C | inconclusive: 11.2 µM [inhibitor, partial curve] | 
34 | CC(=O)C1=C(C)OC2(O)c3ccccc3C(=O)C12O (stereo unspecified) | active: 2.24 µM | 
35 | CC(C)(C)c1ccc(Cn2nnc3c(=O)[nH]c(C4CCCN(C(=O)Cc5cccs5)C4)nc32)cc1 (stereo unspecified) | inconclusive: 17.8 µM [inhibitor, partial curve] | 
36 | COc1ccc2nc(NNC(=O)COc3ccccc3)sc2c1 | inconclusive: 17.8 µM [inhibitor, partial curve, poor fit] | 
37 | Cc1ccc(NC(=O)N(CCCN2CCOCC2)Cc2cc3cc4c(cc3[nH]c2=O)OCO4)cc1 | inconclusive: 28.2 µM [inhibitor, single point] | 
38 | COc1cc(/C=N/N=C2/NC(=O)C(CC(=O)O)S2)ccc1OCc1cccc(Cl)c1 (stereo unspecified) | inconclusive: 14.1 µM [inhibitor, partial curve] | 
39 | O=C(COc1ccccc1[N+](=O)[O-])Nc1ccc(N2CCN(C(=O)c3cccs3)CC2)cc1 | inconclusive: 7.94 µM [inhibitor, partial curve] | 
40 | O=C(N/N=C/C=C\c1ccccc1[N+](=O)[O-])c1cc(-c2ccc3ccccc3c2)n[nH]1 | inconclusive: 1.78 µM [inhibitor, full curve] | 
41 | CCOC(=O)c1c(Cc2cccc(Cl)c2)c[nH]c1C | inconclusive: 39.8 µM [inhibitor, single point] | 
42 | CCC(=O)c1ccc(N2CCN(C(=O)c3ccc(Br)cc3)CC2)c(F)c1 | inconclusive: 10 µM [inhibitor, single point] | 
43 | c1csc(CNc2ccc3c(c2)OCCO3)c1 | inconclusive: 11.2 µM [inhibitor, partial curve] | 
44 | O=C(O)C1CSC2(CCN(Cc3ccccc3)CC2)N1 (stereo unspecified) | inactive | 
45 | Cc1ccccc1NC(=O)CSc1nnc(-c2ccco2)c(-c2ccco2)n1 | active: 7.94 µM | 
46 | COc1ccccc1Nc1nc2c(s1)CCC2 | inconclusive: 31.6 µM [inhibitor, partial curve] | 
47 | CCCCOC(=O)Sc1nc2ccccc2o1 | inconclusive: 22.4 µM [inhibitor, partial curve] | 
48 | CCC(C)NC(=O)CSc1nc2cc3c(cc2c(=O)n1CCCCCC(=O)NCc1ccc(OC)cc1)OCO3 (stereo unspecified) | inactive | 

Row | Structure (SMILES) | Potency | activity, negative = inhibition
49 | Cc1cccc(N(CC(=O)Nc2ccc(-c3nc4ccc(C)cc4s3)cc2)S(C)(=O)=O)c1 | inconclusive: 3.98 µM [activator, partial curve] | 
50 | COc1c(Cl)cc(Cl)cc1CNCCSc1nnnn1C | inactive | 
51 | CCOC(=O)Cc1ccc(NC(=O)c2ccc(C(C)(C)C)cc2)cc1 | inconclusive: 8.91 µM [inhibitor, partial curve, poor fit] | 
52 | Cc1ccc(S(=O)(=O)c2nc(S(=O)(=O)c3ccc(C)cc3)c(NCc3ccco3)s2)cc1 | inactive | 
53 | CCC1CCCCN1Cc1cn2c(-c3ccc(Br)cc3)nnc2s1 (stereo unspecified) | inactive | 
54 | Cc1cccc(C(=O)N/N=C/c2cc(Br)c(Br)o2)c1 | inconclusive: 3.55 µM [inhibitor, full curve] | 
55 | O=C(N/N=C/c1ccc(Cl)c([N+](=O)[O-])c1)C1CC1 | inconclusive: 39.8 µM [inhibitor, single point] | 
56 | O=C(N/N=C/c1ccc(N2CCOCC2)cc1)c1cccs1 | inconclusive: 8.91 µM [inhibitor, partial curve] | 
57 | COc1cc(OC)c(NC(=O)c2c3c(nc4ccccc24)C(=O)N(C2CCCCC2)C3)cc1Cl | inconclusive: 14.1 µM [inhibitor, partial curve, poor fit] | 
58 | Cc1nc2ccccc2nc1N/N=C/c1ccc(O)cc1 | active: 14.1 µM | 
59 | C[C@@H](Oc1ccc(Oc2cnc3ccc(Cl)cc3n2)cc1)C(=O)O | inactive | 
60 | CN(C)c1ccc(P(=O)(OCc2ccccc2)C(O)c2ccncc2)cc1 (stereo unspecified) | inconclusive: 1.12 µM [inhibitor, partial curve, poor fit] | 
61 | COCCCN1CCN(C2Cc3ccccc3Sc3ccc(Cl)cc32)CC1 (stereo unspecified) | inconclusive: 25.1 µM [inhibitor, partial curve] | 
62 | CC(C)CCNC(=O)c1cn(C)c2ccc(S(=O)(=O)N3CCOCC3)cc2c1=O | inactive | 
63 | Cc1ccc(N2CCN(CC(O)COc3cccc4ccccc34)CC2)cc1 (stereo unspecified) | inconclusive: 15.8 µM [inhibitor, partial curve] | 
64 | CC1=NN(c2nc(-c3ccccc3)cs2)C(=O)C1N=Nc1ccccc1 (stereo unspecified) | active: 2.24 µM | 
65 | COc1ccc(N/C=C2\CCc3ccccc3C2=O)cc1 | active: 0.891 µM | 
66 | COc1cc(S(=O)(=O)NC2CCCCC2)c(C)cc1C | inactive | 
67 | Cc1cc(Cl)ccc1NC(=O)c1cc2ccccn2n1 | inconclusive: 20 µM [inhibitor, single point] | 
68 | COc1ccc(Cl)cc1C(=O)Nc1ccc(CN2CCCCC2)cc1 | inactive | 
69 | COC(=O)CNC(=O)COC(=O)/C=C/c1ccc2ccccc2n1 | inconclusive: 0.355 µM [inhibitor, full curve, poor fit] | 
70 | Cc1cc(C)cc(NC(=O)CN2C(=O)CCc3cc(S(=O)(=O)N4CCCCC4)ccc32)c1 | inactive | 
71 | CCOC(=O)c1c(NC(=O)C(C)Oc2ccc(Cl)c(C)c2)sc2c1CCCC2 (stereo unspecified) | inconclusive: 22.4 µM [inhibitor, partial curve] | 
